Source: PubChem BioAssay AID445 (National Center for Advancing Translational Sciences (NCATS), 2006)
The whole screen tested about 110,000 compounds, of which about 40 (0.04%) were called active. Inconclusive results, whose numbers are uncertain, are shown with a selection of clear calls. Calls come from the whole dose curve; as a rule, active = well fitted curve in the direction sought with a large enough effect in the signal ratio (not every such curve was filed as active); inconclusive = small, poorly fitted or top-dose-only effect, or a change in a side signal; inactive = flat fitted curve, though single readings scatter; the % refers to the signal ratio.

experiment: IkB Signaling; details: ABC-DLBCL IkBa-CBG/CBR dual luciferase ratio (green luciferase fused to IkBa over red control in OCI-Ly3 lymphoma cells), 4 h; IkBa stabilization activation: at 57.1 µM (top of the series), scaled: untreated 0%, proteasome inhibitor 100% unless noted;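 note: 0% = basal untreated cells and 100% = reference inhibitor full response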
Outline: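 In this assay, an IκBα–CBG68 fusion accumulates when IKK-driven degradation is blocked; native CBR normalizes for cell number. OCI-Ly3 cells were treated 4 h with compound and doxycycline, then green and red light read after Chroma-Glo addition.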

| SMILES | IkBa stabilization activation |
| --- | --- |
| Cc1nn(C(=O)COc2ccc(Cl)cc2)c(C)c1Sc1ccccc1 | inconclusive: 3.68% [signal inhibitor] |
| CCOC(=O)c1ccc(NC(=O)CC2C(=O)N(c3ccccc3)C(=O)N2Cc2ccc(C)cc2)cc1 (stereo not drawn) | inconclusive: 4.71% [signal inhibitor] |
| COc1ccc(C(=O)Nc2cnc3ccccn3c2=O)cc1 | inconclusive: 7.57% [signal inhibitor] |
| CCOC(=O)c1c(NC(=O)c2ccc(S(=O)(=O)N3CCC(C)CC3)cc2)sc2c1CCN(C(C)C)C2 | inconclusive: 2.01% [signal inhibitor] |
| Cc1ccc2[nH]c(=O)c(CN(CCN3CCOCC3)C(=O)Nc3ccc(F)cc3)cc2c1 | inconclusive: 13.2% [signal inhibitor] |
| CC1(C)Cc2c(C#N)c(NCCCO)nc(-c3ccccc3)c2CO1 | inactive: -4.48% |
| O=C(NCc1ccc(F)cc1)c1c2c(nc3ccccc13)C(=O)N(C1CCCCC1)C2 | inconclusive: -2.16% [signal inhibitor] |
| CN1CCN(c2ncc3nc(-c4cccc(C#N)c4)c(=O)n(C[C@H]4CCCO4)c3n2)CC1 | inactive: 0.126% [at 11.4 µM, scaled: untreated 0%, proteasome inhibitor 100%] |
| CCc1ccc(NC(=O)CSc2nc3n[nH]c(C)c3c(=N)n2-c2ccc(C)cc2)cc1 | inactive: -1.66% |
| Cc1cccc(CCNC(=O)C2CCC(CNS(=O)(=O)c3c(C)cc(C)cc3C)CC2)c1 (stereo not drawn) | inconclusive: 0.257% [signal inhibitor] |
| O=C(Cc1ccc(NC(=O)N2CCCCc3ccccc32)cc1)NCc1ccccc1Br | inconclusive: 0.617% [signal inhibitor] |
| N#Cc1ccc(OC(=O)c2cc(-c3ccc(Cl)cc3)on2)cc1 | inconclusive: 2.04% [signal inhibitor] |
| C[C@H]1CC[C@@H]2[C@@H](C)[C@H]3[C@H](C[C@H]4[C@@H]5CC=C6C[C@@H](O[C@]7(O[C@H]8O[C@@H](C)[C@@H](O)[C@@H](O)[C@@H]8O)C[C@@H](O[C@@H]8O[C@H](CO)[C@@H](O)[C@H](O)[C@@H]8O)[C@@H](O)[C@H](CO)O7)CC[C@]6(C)[C@H]5CC[C@@]34C)N2C1 | inactive: -1.77% [at 25.6 µM, scaled: untreated 0%, proteasome inhibitor 100%] |
| CCC(C(=O)NCc1ccco1)N(C(=O)CNS(=O)(=O)c1ccc(C)cc1)c1ccccc1OC (stereo not drawn) | inactive: -0.327% |
| Cc1ccc(NC(=O)CN(C)S(=O)(=O)c2ccc3c(c2)n(C)c(=O)c(=O)n3C)c(C)c1 | inconclusive: 0.106% [signal inhibitor] |
| O=C(CSc1nnc(CNc2ccc(Cl)cc2)n1Cc1ccccc1)NCc1ccco1 | inconclusive: 7.56% [signal inhibitor] |
| O=C(CSc1nnc2scc(-c3ccccc3)n12)Nc1ccc(Cl)cc1 | inconclusive: 1.29% [signal inhibitor] |
| O=C(Cn1c(=O)c2ccccc2n2nncc12)Nc1cccc(F)c1 | inconclusive: 18.2% [signal inhibitor] |
| CC1CCN(c2ccc(-c3nc(-c4ccccc4)no3)cc2[N+](=O)[O-])CC1 | inconclusive: -2.22% [signal inhibitor] |
| CCC(=O)c1ccc(OCC(=O)Nc2nn3cnnc3s2)cc1 | inactive: 1.47% |
| CCOc1ccc(NC(=O)c2cccnc2C(=O)O)cc1 | inactive: 1.1% |
| O=C1OCC2=C1C(c1ccc3c(c1)OCO3)Sc1ccccc1N2 (stereo not drawn) | inconclusive: 5.18% [signal inhibitor] |

| SMILES | IkBa stabilization activation |
| --- | --- |
| CCN1CCN(c2cc(C)c3cc(NC(=O)c4cnccn4)ccc3n2)CC1 | inactive: -1.28% |
| CCCCOc1ccccc1C1CC(=O)NC2=C1C(=O)CCC2 (stereo not drawn) | inactive: 5.88% |
| CN(C(=O)CSc1nc2ccccc2n1CC(=O)N(C)C1CCCCC1)c1ccccc1 | inactive: -1.07% |
| O=C(Nc1ccc2c(c1)OCO2)c1ccc(CN2CCOCC2)cc1 | inactive: -1.34% |
| Cc1ccc(C)c(NC(=O)c2cc(S(=O)(=O)NCCc3ccccc3)ccc2F)c1 | inactive: -0.596% |
| CCOC(=O)C1CCCN(C(=O)c2ccc3c(c2)N(Cc2ccc(Cl)cc2)C(=O)c2ccccc2S3=O)C1 (stereo not drawn) | inconclusive: 2.5% [signal inhibitor] |
| COc1cccc(NC(=O)Nc2ccc3nc(N4CCN(C)CC4)cc(C)c3c2)c1 | inconclusive: 3.28% [signal inhibitor] |
| O=C(Oc1c(CN2CCOCC2)cc(Cl)c2cccnc12)c1ccc(F)cc1 | inactive: 17.4% |
| Nc1ncnc2c1nc(Br)n2[C@H]1O[C@H]2COP(=O)(O)O[C@H]2[C@@H]1O | inactive: -0.0727% |
| Cc1nc(N2CCCC2)c2c(C(=O)Nc3ccc(Br)cc3F)c(C)oc2n1 | inconclusive: 1.92% [signal inhibitor] |
| NCCCCNS(=O)(=O)c1ccc2c(Cl)cccc2c1 | inconclusive: 0.352% [signal inhibitor] |
| Cc1ccc(Cn2nnc3c(=O)[nH]c(C4CCN(S(=O)(=O)c5ccccc5)CC4)nc32)cc1 | inconclusive: 12.4% [signal inhibitor] |
| CN(C)C(=O)c1ccc(-c2cc(NCc3cccs3)ncn2)cc1 | inactive: -1.05% [at 11.4 µM, scaled: untreated 0%, proteasome inhibitor 100%] |
| c1ccc(COn2c(-c3ccccc3)nc3c2CCc2nonc2-3)cc1 | inactive: 0.953% |
| Cc1ccccc1C(=O)Nc1nc(-c2ccc(Br)cc2)ns1 | inconclusive: 3.18% [signal inhibitor] |
| O=C(CSc1nnnn1-c1ccccc1)Nc1nsc(-c2ccccc2)n1 | inconclusive: -2.84% [signal inhibitor] |
| CC(C)Oc1ccc(CNC(=O)C2CCN(C(=O)N3CC(C)Oc4ccccc43)CC2)cc1 (stereo not drawn) | inconclusive: 14.1% [signal inhibitor] |
| CC(C)n1c(SCc2ccccc2F)nc2c1c(=O)n(C)c(=O)n2C | inconclusive: 9.43% [signal inhibitor] |
| CCOC(=O)c1oc2ccc(CNCCO)c(Cl)c2c1C | inactive: 1.24% |
| CCN1CC=C2C(C1)C(c1ccc(Cl)s1)C(C#N)=C(N)C2(C#N)C#N (stereo not drawn) | inconclusive: 18.1% [signal activator] |
| CCOc1ccc2nc(N3CCC(C(=O)Nc4cc(C)ccc4C)CC3)sc2c1 | inconclusive: 2.31% [signal inhibitor] |
